# From the supplement of paper PMC8728848
# The other results are listed elsewhere or left out.
# B1: CSA (Cytisus scoparius), P29257 (protein)
# chain: SEELSFSFTKFKTDQKNLILQRDALITPTGKLQLTTVENGKPAAYSLGRALYSTPIHIWDKSTGDEASFATFFSFVISDAPNPSTAATDGLAFFLAPADTQPQSAGGYLGLFEKDSSYNSSNQIVAVEFDTYYNSAWDPQTNPHIGIDVNTIKSKKVSSWGFKNGNVATVLITYQPSSKSLVASLVYPSGQTSDKTSYIISANVDLKATVPEWVRIGFSATTGQTDNYIETHDILSWSFKSKLPATKN
# Experiments:
# Test in all cases: glycan array binding signal (z-score within array); higher = stronger binding
# Conditions in all cases: glycan notation: IUPAC condensed, linker removed
# [1] = target: Neu5Ac(a2-3)Gal(b1-4)GlcNAc(b1-2)Man
# Outline: (§1)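 From the Consortium for Functional Glycomics database, 3228 arrays were curated, keeping only those whose protein sequence was available. Binding is given as a within-array Z-score averaged across arrays sharing a protein sequence and across linkers. Negative Z-scores can be read as non-binding.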
# [2] = target: Neu5Ac(a2-3)Gal(b1-4)GlcNAc(b1-2)Man(a1-3)[GlcNAc(b1-4)][Neu5Ac(a2-3)Gal(b1-4)GlcNAc(b1-2)Man(a1-6)]Man(b1-4)GlcNAc(b1-4)GlcNAc
# Outline: as §1
# [3] = target: Neu5Ac(a2-3)Gal(b1-4)GlcNAc(b1-2)Man(a1-3)[Neu5Ac(a2-3)Gal(b1-4)GlcNAc(b1-2)Man(a1-6)]Man(b1-4)GlcNAc(b1-4)GlcNAc
# Outline: as §1
# [4] = target: Neu5Ac(a2-3)Gal(b1-4)GlcNAc(b1-2)Man(a1-3)[Neu5Ac(a2-3)Gal(b1-4)GlcNAc(b1-2)Man(a1-6)]Man(b1-4)GlcNAc(b1-4)[Fuc(a1-6)]GlcNAc
# Outline: as §1
# [5] = target: Neu5Ac(a2-3)Gal(b1-4)GlcNAc(b1-2)Man(a1-3)[Neu5Ac(a2-6)Gal(b1-4)GlcNAc(b1-2)Man(a1-6)]Man(b1-4)GlcNAc(b1-4)GlcNAc
# Outline: as §1
# [6] = target: Neu5Ac(a2-3)Gal(b1-4)GlcNAc(b1-2)[Neu5Ac(a2-3)Gal(b1-4)GlcNAc(b1-4)]Man(a1-3)[GlcNAc(b1-4)][Neu5Ac(a2-3)Gal(b1-4)GlcNAc(b1-2)[Neu5Ac(a2-3)Gal(b1-4)GlcNAc(b1-6)]Man(a1-6)]Man(b1-4)GlcNAc(b1-4)GlcNAc
# Outline: as §1
# [7] = target: Neu5Ac(a2-3)Gal(b1-4)GlcNAc(b1-2)[Neu5Ac(a2-3)Gal(b1-4)GlcNAc(b1-4)]Man(a1-3)[GlcNAc(b1-4)][Neu5Ac(a2-3)Gal(b1-4)GlcNAc(b1-4)Man(a1-6)]Man(b1-4)GlcNAc(b1-4)GlcNAc
# Outline: as §1
# [8] = target: Neu5Ac(a2-3)Gal(b1-4)GlcNAc(b1-2)[Neu5Ac(a2-3)Gal(b1-4)GlcNAc(b1-6)]Man(a1-6)[Neu5Ac(a2-3)Gal(b1-4)GlcNAc(b1-2)Man(a1-3)]Man(b1-4)GlcNAc(b1-4)GlcNAc
# Outline: as §1
# [9] = target: Neu5Ac(a2-3)Gal(b1-4)GlcNAc(b1-2)[Neu5Ac(a2-3)Gal(b1-4)GlcNAc(b1-6)]Man(a1-6)[Neu5Ac(a2-3)Gal(b1-4)GlcNAc(b1-2)Man(a1-3)][GlcNAc(b1-4)]Man(b1-4)GlcNAc(b1-4)GlcNAc
# Outline: as §1
# [10] = target: Neu5Ac(a2-3)Gal(b1-4)GlcNAc(b1-3)Gal
# Outline: as §1
# [11] = target: Neu5Ac(a2-3)Gal(b1-4)GlcNAc(b1-3)Gal(b1-3)GlcNAc
# Outline: as §1
# [12] = target: Neu5Ac(a2-3)Gal(b1-4)GlcNAc(b1-3)Gal(b1-4)GlcNAc
# Outline: as §1
# [13] = target: Neu5Ac(a2-3)Gal(b1-4)GlcNAc(b1-3)Gal(b1-4)GlcNAc(b1-2)Man(a1-3)[Neu5Ac(a2-3)Gal(b1-4)GlcNAc(b1-3)Gal(b1-4)GlcNAc(b1-2)Man(a1-6)]Man(b1-4)GlcNAc(b1-4)GlcNAc
# Outline: as §1
# [14] = target: Neu5Ac(a2-3)Gal(b1-4)GlcNAc(b1-3)Gal(b1-4)GlcNAc(b1-3)Gal(b1-4)GlcNAc
# Outline: as §1
# [15] = target: Neu5Ac(a2-3)Gal(b1-4)GlcNAc(b1-3)Gal(b1-4)GlcNAc(b1-3)Gal(b1-4)GlcNAc(b1-2)Man(a1-3)[Neu5Ac(a2-3)Gal(b1-4)GlcNAc(b1-3)Gal(b1-4)GlcNAc(b1-3)Gal(b1-4)GlcNAc(b1-2)Man(a1-6)]GalNAc
# Outline: as §1
# [16] = target: Neu5Ac(a2-3)Gal(b1-4)GlcNAc(b1-3)Gal(b1-4)GlcNAc(b1-3)GalNAc
# Outline: as §1
# [17] = target: Neu5Ac(a2-3)Gal(b1-4)GlcNAc(b1-3)Gal(b1-4)GlcNAc(b1-3)[Neu5Ac(a2-3)Gal(b1-4)GlcNAc(b1-3)Gal(b1-4)GlcNAc(b1-6)]GalNAc
# Outline: as §1
# [18] = target: Neu5Ac(a2-3)Gal(b1-4)GlcNAc(b1-3)Gal(b1-4)GlcNAc(b1-6)[Gal(b1-3)]GalNAc
# Outline: as §1
# [19] = target: Neu5Ac(a2-3)Gal(b1-4)GlcNAc(b1-3)Gal(b1-4)[Fuc(a1-3)]GlcNAc
# Outline: as §1
# [20] = target: Neu5Ac(a2-3)Gal(b1-4)GlcNAc(b1-3)GalNAc
# Outline: as §1
# [21] = target: Neu5Ac(a2-3)Gal(b1-4)GlcNAc(b1-3)[Neu5Ac(a2-3)Gal(b1-4)GlcNAc(b1-6)]GalNAc
# Outline: as §1
# [22] = target: Neu5Ac(a2-3)Gal(b1-4)GlcNAc(b1-6)GalNAc
# Outline: as §1
# [23] = target: Neu5Ac(a2-3)Gal(b1-4)GlcNAc(b1-6)[Gal(b1-3)]GalNAc
# Outline: as §1
# [24] = target: Neu5Ac(a2-3)Gal(b1-4)GlcNAc(b1-6)[Neu5Ac(a2-3)Gal(b1-3)]GalNAc
# Outline: as §1
# [25] = target: Neu5Ac(a2-3)Gal(b1-4)GlcNAc6S
# Outline: as §1
# [26] = target: Neu5Ac(a2-3)Gal(b1-4)[Fuc(a1-3)]GlcNAc
# Outline: as §1
# [27] = target: Neu5Ac(a2-3)Gal(b1-4)[Fuc(a1-3)]GlcNAc(b1-2)Man
# Outline: as §1
# [28] = target: Neu5Ac(a2-3)Gal(b1-4)[Fuc(a1-3)]GlcNAc(b1-3)Gal
# Outline: as §1
# [29] = target: Neu5Ac(a2-3)Gal(b1-4)[Fuc(a1-3)]GlcNAc(b1-3)Gal(b1-4)GlcNAc
# Outline: as §1
# [30] = target: Neu5Ac(a2-3)Gal(b1-4)[Fuc(a1-3)]GlcNAc(b1-3)Gal(b1-4)[Fuc(a1-3)]GlcNAc(b1-3)Gal(b1-4)[Fuc(a1-3)]GlcNAc
# Outline: as §1
# [31] = target: Neu5Ac(a2-3)Gal(b1-4)[Fuc(a1-3)]GlcNAc(b1-3)GalNAc
# Outline: as §1
# [32] = target: Neu5Ac(a2-3)Gal(b1-4)[Fuc(a1-3)]GlcNAc(b1-6)[Gal(b1-3)]GalNAc
# Outline: as §1
# [33] = target: Neu5Ac(a2-3)Gal(b1-4)[Fuc(a1-3)]GlcNAc(b1-6)[Neu5Ac(a2-3)Gal(b1-3)]GalNAc
# Outline: as §1
# [34] = target: Neu5Ac(a2-3)Gal(b1-4)[Fuc(a1-3)]GlcNAc6S
# Outline: as §1
# [35] = target: Neu5Ac(a2-3)Gal6S(b1-4)GlcNAc
# Outline: as §1
# [36] = target: Neu5Ac(a2-3)Gal6S(b1-4)[Fuc(a1-3)]GlcNAc
# Outline: as §1
# Neu5Ac(a2-3)GalNAc = target: Neu5Ac(a2-3)GalNAc
# Outline: as §1
# [37] = target: Neu5Ac(a2-3)GalNAc(b1-4)GlcNAc
# Outline: as §1
binder,measurement,setting,value
B1,glycan array binding signal (z-score),[1],-0.182
same,glycan array binding signal (z-score),[2],-0.209
same,glycan array binding signal (z-score),[3],-0.19
same,glycan array binding signal (z-score),[4],-0.191
same,glycan array binding signal (z-score),[5],-0.21
same,glycan array binding signal (z-score),[6],-0.214
same,glycan array binding signal (z-score),[7],-0.192
same,glycan array binding signal (z-score),[8],-0.185
same,glycan array binding signal (z-score),[9],-0.211
same,glycan array binding signal (z-score),[10],-0.223
same,glycan array binding signal (z-score),[11],-0.212
same,glycan array binding signal (z-score),[12],-0.17
same,glycan array binding signal (z-score),[13],0.24
same,glycan array binding signal (z-score),[14],-0.227
same,glycan array binding signal (z-score),[15],0.713
same,glycan array binding signal (z-score),[16],-0.216
same,glycan array binding signal (z-score),[17],-0.182
same,glycan array binding signal (z-score),[18],-0.051
same,glycan array binding signal (z-score),[19],-0.231
same,glycan array binding signal (z-score),[20],-0.206
same,glycan array binding signal (z-score),[21],-0.079
same,glycan array binding signal (z-score),[22],-0.181
same,glycan array binding signal (z-score),[23],-0.131
same,glycan array binding signal (z-score),[24],-0.243
same,glycan array binding signal (z-score),[25],-0.185
same,glycan array binding signal (z-score),[26],-0.187
same,glycan array binding signal (z-score),[27],-0.208
same,glycan array binding signal (z-score),[28],-0.201
same,glycan array binding signal (z-score),[29],-0.149
same,glycan array binding signal (z-score),[30],-0.162
same,glycan array binding signal (z-score),[31],-0.172
same,glycan array binding signal (z-score),[32],-0.146
same,glycan array binding signal (z-score),[33],-0.172
same,glycan array binding signal (z-score),[34],-0.185
same,glycan array binding signal (z-score),[35],-0.174
same,glycan array binding signal (z-score),[36],-0.231
same,glycan array binding signal (z-score),Neu5Ac(a2-3)GalNAc,-0.205
same,glycan array binding signal (z-score),[37],-0.204
